Here are results for five molecules from US20240101605A1 (Affibody, published 2024).

By Kd is commonly meant a measure of binding affinity in units of concentration. Low readings indicate tighter binding, high ones weaker binding.

Numbering of substitutions follows the chain as printed. Numbers in names are those of the source.

The chains are these.
T1: extracellular domain from murine CD69 (murine, UniProt P37217 64-199)
T1 construct: Bought protein; immobilized on a CM5 chip by EDC/NHS coupling; also called mCD69
T1 sequence: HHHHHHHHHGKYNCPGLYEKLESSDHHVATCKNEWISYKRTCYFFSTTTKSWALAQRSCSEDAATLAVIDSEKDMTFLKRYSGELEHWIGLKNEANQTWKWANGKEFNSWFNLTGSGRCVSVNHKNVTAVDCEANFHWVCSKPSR

T2: extracellular domain from human CD69 (human, UniProt Q07108 64-199)
T2 construct: Bought protein; immobilized on a CM5 chip by EDC/NHS coupling; also called hCD69
T2 sequence: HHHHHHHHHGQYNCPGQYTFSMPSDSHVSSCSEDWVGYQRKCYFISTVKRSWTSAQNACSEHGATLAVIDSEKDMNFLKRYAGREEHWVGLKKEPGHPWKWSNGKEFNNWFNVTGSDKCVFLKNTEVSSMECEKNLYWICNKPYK

B1: H6-ZC69001-ABD (designed binder)
chain: MGSSHHHHHHYYLEVDNKFNKEFYNAWWEIRKLPNLNAWQKEAFKTSLKDDPSQSANLLAEAKKLNDAQAPKVDGGGGSGGGGSGGGGSLAEAKVLANRELDKYGVSDFYKRLINKAKTVEGVEALKLHILAALP
notes: also called ZC69001 in the format H6-Z-(G4S)3-ABD
B2: H6-ZC69002-ABD (designed binder)
chain: B1 chain with A38S, W39Y
notes: also called ZC69002 in the format H6-Z-(G4S)3-ABD
B3: H6-ZC69004-ABD (designed binder)
chain: B1 chain with Y24S, N25M, W27M, W28K, R31L, K32A, A38Q, W39Y
notes: also called ZC69004 in the format H6-Z-(G4S)3-ABD
B4: H6-ZC69005-ABD (designed binder)
chain: B1 chain with Y24Q, N25W, W28Q, R31L, K32V, A38K, W39Y
notes: also called ZC69005 in the format H6-Z-(G4S)3-ABD
B5: H6-ZC69003-ABD (designed binder)
chain: B1 chain with Y24Q, N25W, W28Q, R31L, K32H, A38K, W39Y
notes: also called ZC69003 in the format H6-Z-(G4S)3-ABD

The target in the first test is T1, extracellular domain from murine CD69. Put plainly: SPR, Biacore T200, target immobilized on CM5 chip, 1-100 nM in triplicates. In general terms: Surface plasmon resonance follows binding to a sensor surface in real time, without labels.
For the molecule B1, the Kd is 34 nM.
In the case of B2, binding was characterised by a dissociation constant (Kd) of 46 nM.

A further test has as its target T2, extracellular domain from human CD69. The test is described as above.
Molecule B1 registered a Kd of 34 nM.
Consider B2, for which binding was characterised by a dissociation constant (Kd) of 51 nM.
In turn, B3 returned a Kd of 29 nM.
Molecule B4 gave a Kd of 30 nM.
With B5, the affinity, expressed as Kd, was 49 nM.

In another test the target is T3, Human serum albumin (human, UniProt P02768 25-609).
T3 construct: immobilized on a CM5 chip; also called HSA
Described as above.
In turn, B1 had a dissociation constant Kd of 0.17 nM.
Molecule B2 showed a Kd of 0.09 nM.
Still for that read-out and setting: under B3 stands 0.78 nM; under B4, 0.52 nM.
Still for that read-out and setting: under B5 stands 0.49 nM.
